± gives the standard deviation of the averaged measurements. This is one part of the list.

The test relates to PfAP2-LT AP2 domain (GST-tagged). Briefly: gcPBM binding intensity (ln(normalized median fluorescence intensity)); higher = stronger DNA binding. Put shortly: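 GST-tagged P. falciparum DNA-binding domains produced in E. coli were incubated for 1 h on an Agilent 4 × 180k array of primer-extended double-stranded 36-bp intergenic genomic probes with negative controls. Binding intensity is the highest Masliner-normalised natural-log median intensity across replicate spots of either probe orientation, with bound protein detected by Alexa488 anti-GST antibody at 488 nm.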
“TAAAAAAAAATAAATGGTACACAATTAAATGTTTAT [XGTACX_site5255]”: the “gcPBM binding intensity (ln)” value was determined as 8.69 ± 0.47.
For the sequence “AAAAAAATATATATATATATATATATATATTTATAT [XGTACX_negctrl_site86]”, the “gcPBM binding intensity (ln)” value came out at 9.23 ± 0.085.
To “GTAATTATTAATAAAACATGCGTATAAAATTTTCTC [TGCATGCA_site50]” belongs 8.62 ± 0.46; to “TAAATTCTTTAAAACTTTAAAACAAAAAAAAAAAAA [CACACA_negctrl_site1078]”, 7.96 ± 0.38; to “TCTTTTTTTAATAAAACATGCAATATTATATATGTA [TGCATGCA_site236]”, 8.42 ± 0.48.
For the sequence “AATTTTAGATTTAGCACACATTTTTTTTTTTTTTTT [CACACA_site6105]”, the “gcPBM binding intensity (ln)” value stood at 8.75 ± 0.54.
To “TTTTTAATCTCATATGTATAATATATTTTTATTAAA [XGTACX_negctrl_site236]” belongs 8.15 ± 0.43; to “TTCAAAGGGAAATTAACACACACATATATATATATA [CACACA_site8777]”, 9.71 ± 0.2; to “TTCAATGCTAATTTATGTACATATGTATATAAAATA [XGTACX_site8335]”, 8.46 ± 0.35.
To “AAAATATATATTTGTTGTACAATATTAATTATTAAA [XGTACX_site1612]” belongs 8.49 ± 0.41; to TTTATATAAATTTAAGTGCAAAATGAACAAGTGAAA, 8.69 ± 0.41.
On to “CCCAAAAAAAATTTATGTACTTATTAAATATATATA [XGTACX_site6455]”, for which the “gcPBM binding intensity (ln)” value was 8.51 ± 0.26.
As for “TGCAAAGGTGAAAGAACACACAAAAAAAAAAAAAAA [CACACA_site4024]”, the figure is 8.88 ± 0.54.
As for “CACCATGTTAACAAAGCATGCATCTCTATAGTTTTA [TGCATGCA_site97]”, the figure is 8.81 ± 0.38.
Turning to “AAAAAAAAAAAAAGAACATGCGACTTTAAGAACTGG [TGCATGCA_site792]”, the “gcPBM binding intensity (ln)” value came out at 8.62 ± 0.46.
As for “TAAAAAATTATATATTGTACGAATGCATAAAAAAAA [XGTACX_site4606]”, the figure is 8.69 ± 0.44.
As for “CAAATGTGTTCTTCAGGTACAGATACACATTTATGA [XGTACX_site2664]”, the figure is 8.73 ± 0.37.
Take “TATGAAAATAAAATATGTACATATTTTAAATGTTAT [XGTACX_site7352]”: the “gcPBM binding intensity (ln)” value worked out at 8.69 ± 0.47.
As for “CCCTCCCCATGTTTAGTGCAAAAATATTTGAAATTG [GTGCAC_site9873]”, the figure is 10.1 ± 0.057; as for “TGAATAAATATATATACACACATATCTGTATTTATT [CACACA_site4991]”, 8.98 ± 0.36.
As for “TATATATATACCAACACACATACATATATATATATA [CACACA_site1795]”, the figure is 9.49 ± 0.22.
As for “AAATTTGGCAGACACACACACACACGCACACGCACA [CACACA_site6423]”, the figure is 10.4 ± 0.33; as for “TATGAAATTAGAATTACACACAGGAAAATAAAATGC [CACACA_site6822]”, 9.16 ± 0.47; as for “AAAAAAAATCAAATGGGTACTTATTCTTAATAATAT [XGTACX_site3792]”, 8.61 ± 0.33.
As to “TTTGCGTAGAAATGTGTGCACTGATATTTATAATAA [GTGCAC_site9526]”, the “gcPBM binding intensity (ln)” value is 9.03 ± 0.43.
